This is an account of results in the antibiotic and cytotoxicity screens of Wong et al. (2023).

The list shows a part of the results.

The assay has as its system HSkMC (human skeletal muscle cells). The experiment in a line: cytotoxicity call (relative viability < 0.9). As to conditions: 10 µM.
`O=C(O)C1=CO[C@@H](O[C@@H]2O[C@H](CO)[C@@H](O)[C@H](O)[C@H]2O)[C@@H]2C(CO)=CC[C@H]12`: the cytotoxicity call was “inactive”.

Take `Cc1ccc(S(=O)(=O)Nc2ccc3c(c2)C(=O)N([C@@H](C)CO)C[C@@H](C)[C@H](CN(C)C(=O)CCC(F)(F)F)OCCCC[C@H](C)O3)cc1`: the cytotoxicity call was “inactive”. As for `C[C@@H]1CN([C@@H](C)CO)C(=O)c2cc(NC(=O)Nc3cccc4ccccc34)ccc2O[C@@H](C)CCCCO[C@@H]1CN(C)Cc1ccccc1`, the entry is “active”; as for `Cc1ccc(S(=O)(=O)N(C)C[C@H]2Oc3ncc(-c4ccncc4)cc3C(=O)N([C@@H](C)CO)C[C@H]2C)cc1`, “inactive”; as for `C[C@@H]1CN([C@@H](C)CO)C(=O)c2cc(NC(=O)c3ccccc3)ccc2O[C@@H](C)CCCCO[C@@H]1CN(C)C(=O)Nc1ccccc1`, “inactive”. Regarding `CC(=O)Oc1ccc2c(C)cc(=O)oc2c1`, the cytotoxicity call was “inactive”. The value for `CC=Cc1ccc2n(c1=O)C[C@H]1[C@H](CO)[C@@H](C(=O)NC3CCC3)N(S(C)(=O)=O)[C@@H]21` was “inactive”; that for `Cc1noc(C)c1S(=O)(=O)N(C)C[C@H]1Oc2ccc(NC(=O)Cn3cnnn3)cc2CC(=O)N([C@H](C)CO)C[C@H]1C` was “inactive”.

For `Cc1cc(C)n(C(=O)Cn2cc([N+](=O)[O-])cn2)n1`, the cytotoxicity call is “inactive”. Take `C[C@H](CO)N1C[C@H](C)[C@H](CN(C)S(=O)(=O)c2ccccc2)Oc2cc(Br)ccc2S1(=O)=O`: the cytotoxicity call is “inactive”. The value for `C[C@@H]1CN([C@@H](C)CO)C(=O)c2cc(NS(=O)(=O)c3ccc(Cl)cc3)ccc2O[C@H]1CN(C)Cc1ccc(C(F)(F)F)cc1` was “inactive”; that for `C[C@@H]1CN([C@@H](C)CO)S(=O)(=O)c2ccc(C#CCN(C)C)cc2O[C@H]1CN(C)S(=O)(=O)c1cccc(F)c1` was “inactive”; that for `C[C@H]1CCCCO[C@@H](CN(C)C(=O)Nc2ccc(F)cc2)[C@@H](C)CN([C@@H](C)CO)C(=O)c2cc(NC(=O)c3ccccc3)ccc2O1` was “inactive”. Consider `C[C@@H]1CCCCO[C@@H](CN(C)C(=O)c2ccccc2)[C@@H](C)CN([C@H](C)CO)C(=O)c2cc(NS(=O)(=O)c3ccccc3)ccc2O1`, for which the cytotoxicity call was “inactive”. As to `C[C@@H]1CN([C@H](C)CO)C(=O)c2cc(C#CC3(O)CCCC3)cnc2O[C@H]1CN(C)S(C)(=O)=O`, the cytotoxicity call was “inactive”. In the case of `Cc1noc(C)c1NC(=O)N(C)C[C@@H]1Oc2ccc(NC(=O)C3CC3)cc2C(=O)N([C@@H](C)CO)C[C@H]1C`, the cytotoxicity call is “inactive”. As for `O=C(O)C[C@@H](O)C(=O)O`, the entry is “inactive”; as for `C[C@@H]1CN([C@@H](C)CO)C(=O)Cc2cc(NC(=O)Nc3ccc(F)cc3)ccc2O[C@H]1CN(C)Cc1ccc(Cl)c(Cl)c1`, “active”. Take `C[C@H](CO)N1C[C@H](C)[C@@H](CN(C)C(=O)c2ccccc2)OCCCC[C@H](C)Oc2ccc(NC(=O)NC3CCCCC3)cc2C1=O`: the cytotoxicity call was “inactive”. In the case of `CC[C@@H]1OC(=O)C[C@@H](O)[C@H](C)[C@@H](O[C@@H]2O[C@H](C)[C@@H](O)[C@H](N(C)C)[C@H]2O)[C@@H](CCN2C[C@H](C)C[C@H](C)C2)C[C@@H](C)C(=O)/C=C/C(C)=C\[C@@H]1CO[C@@H]1O[C@H](C)[C@@H](O)[C@@H](OC)[C@H]1OC`, the cytotoxicity call is “inactive”. In the case of `C[C@@H]1CN([C@H](C)CO)C(=O)c2c(c3ccccc3n2C)-c2ccccc2CO[C@H]1CN(C)Cc1ccccc1C(F)(F)F`, the cytotoxicity call was “active”.

Turning to `C[C@H]1CCCCO[C@H](CN(C)C(=O)c2ccccc2)[C@@H](C)CN([C@@H](C)CO)C(=O)c2cc(NC(=O)CCC(F)(F)F)ccc2O1`, the cytotoxicity call is “inactive”.
